Source: the supplement of paper PMC3334620
Whole data set: some 33,000 sequences, median “E-score (-0.5 to 0.5)” near -0.036, cut for the highest 2% near 0.37. This is one part of the list.

Target: T1, Yer064c (UniProt P40041)
T1 sequence: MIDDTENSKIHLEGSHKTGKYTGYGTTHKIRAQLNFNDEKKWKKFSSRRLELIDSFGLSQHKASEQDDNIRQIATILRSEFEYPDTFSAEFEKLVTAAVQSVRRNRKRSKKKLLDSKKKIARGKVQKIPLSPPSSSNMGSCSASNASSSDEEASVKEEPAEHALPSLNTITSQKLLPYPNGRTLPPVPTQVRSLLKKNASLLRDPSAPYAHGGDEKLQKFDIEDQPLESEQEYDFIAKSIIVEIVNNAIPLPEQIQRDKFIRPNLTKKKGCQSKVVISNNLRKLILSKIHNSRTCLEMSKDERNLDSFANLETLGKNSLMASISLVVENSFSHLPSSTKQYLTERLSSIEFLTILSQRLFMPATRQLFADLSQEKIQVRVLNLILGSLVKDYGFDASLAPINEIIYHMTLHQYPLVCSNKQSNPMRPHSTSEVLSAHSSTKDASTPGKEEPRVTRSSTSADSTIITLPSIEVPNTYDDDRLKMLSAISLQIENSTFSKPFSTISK
Assay: PBM E-score (8-mer binding enrichment) (E-score (-0.5 to 0.5)); higher = stronger / more preferred TF binding; most listed sequences are background and not binding sites
Conditions: protein concentration: 200 nM; construct: GST-full length
Summary of the method: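 GST-tagged yeast TFs (full-length or DNA-binding domain) were made by PURExpress in vitro transcription/translation and applied at about 100-200 nM to universal all-10-mer Agilent arrays. The arrays were made double-stranded by primer extension, on fresh or once-stripped slides. Bound protein was detected with fluorescent anti-GST, and scans were normalised with masliner. Each ungapped eight-base word, pooled with its reverse complement, received an E-score (modified Wilcoxon-Mann-Whitney statistic) from the Universal PBM Analysis Suite.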

Sequence	PBM E-score
CGGCACCA	-0.195
AACTAATC	0.15
GATTAAGA	0.35
GGATCAGA	-0.0744
AATACCAA	-0.0127
CATGCCAC	-0.122
AACAAGAG	-0.0406
CTTTCACA	0.0349
AAAATTAA	0.0275
GCGGCCTA	-0.192
CTACTCAG	0.132
CTAAGGGA	-0.0913
TACGTGAA	-0.00788
AATGCCTG	-0.22
AGCGGTCC	-0.11
TATCGCCA	-0.051
CATCACAA	-0.0486
CCCGACGG	-0.172
ATAAGTTC	0.0221
ACAAGTCT	0.0793
TATCGACA	-0.0727
GAACTACA	-0.0403
GTGATCCA	0.014
AGACATAT	0.137
CACTCGTC	0.0587

Sequence	PBM E-score
AAAGCCGG	-0.189
CGACATCA	-0.217
AGCGGCGC	-0.287
AGATAGTA	0.177
GGGAGCCA	-0.00881
GCCCTTAA	-0.185
GAAGGGTC	-0.13
CATAATAG	0.00036
CGGGCAAC	-0.115
GTACCACA	0.0546
CCATATCA	-0.0803
CGACCCGC	-0.12
AGCTTCAT	-0.0042
GTTTTTTA	0.0743
ACGCCTGG	-0.0916
GCTTCTCA	-0.0992
CCGGTAGG	-0.102
AACTACTC	0.199
CCTCGGGA	-0.063
AGTCTTTC	0.372
CACTCGGC	0.00226
ATGCACCA	-0.193
AACTTTAC	-0.0347
AAGCGAAT	-0.0164
CGCGTCCA	-0.166

Sequence	PBM E-score
GGATACCC	-0.0132
CGCCTTTC	-0.222
ATAAATGA	0.308
TAATTGAA	0.204
GATCCCGC	-0.222
CGAGATCG	0.0241
AATCCCAT	-0.18
AGACGAAA	-0.0295
CCAGCGCC	-0.274
CCGAGTCC	0.195
AAGATGCA	-0.0244
AAGGTCGA	-0.0769
GGTAGTAA	0.0578
GGTCGAAC	-0.00263
AGATTGCG	0.0137
GCGCGCTA	-0.194
GTATCTCA	0.223
CACCGTCA	0.0302
CTGGGAAA	-0.133
AGTCATAA	0.476
AATCAGAC	0.34
CAGAGCTG	-0.065
TCATCTAA	0.319
AGATGACA	0.116
GGAGAAAA	-0.177

Sequence	PBM E-score
TATCCGGA	-0.12
CCACAACG	0.0189
GCCATGCA	-0.128
ATTCTTTA	0.192
CCGGGGCG	-0.174
CAATCGTG	0.0936
CATCCACG	0.0743
GCCGTAAA	-0.0829
ACTAGTTA	0.229
ACGGAACG	-0.0653
CCTAATAC	0.0357
GTCTAGTA	0.0336
ATGGCTGC	-0.0318
TCAGAAGA	0.153
CTTATAAA	0.163
CGCAAACA	0.0747
CAAATAGC	-0.118
CTCCTGTA	0.0484
CAGTGGCC	-0.158
CCCCTTGC	-0.252
ACGACCGC	-0.242
AAGATCAA	0.0843
GACACTAA	-0.0431
CCGACTAA	0.358
ATCTATGC	-0.268

Sequence	PBM E-score
TCTCGTCA	0.046
GATCTCAC	-0.0301
AATTAATC	0.35
GTTGCAAA	-0.00101
AATAGCCA	0.184
CTCCGCGC	-0.0845
AGGGTCTC	-0.244
CTGCATGC	-0.075
AGTGCCTC	-0.0945
CGCGATAG	-0.0145
ATCGTACG	0.0461
AACAGCCC	-0.254
GAGAACTC	0.0416
AAACGCAC	-0.113
CCCAGGTA	-0.183
CAATGGGC	-0.124
CCCCTCGA	-0.276
GCTTATAC	-0.0573
TCTGGAAA	0.139
AGAGAGTA	0.121
GAGGCAAC	-0.113
ACGTCCAA	-0.118
GTTGGTAA	0.104
AAGGGATG	-0.176
CGCTGCTA	-0.211

Sequence	PBM E-score
TCCACCGA	-0.0767
CGTGGAGA	-0.0815
ATGAGCGG	-0.0995
ACGATTCG	0.0252
GGCTTAAC	0.0718
TACTGCTA	-0.316
AGGGCCCT	-0.377
AAACACAT	0.156
ATCTGCTC	0.0277
AAATGACT	0.475
GCAGGTTA	-0.188
ACTGCGGG	0.0712
ATCAGACG	-0.0527
ATCCTCGG	-0.155
AGTCGTAC	0.399
AGAATAGC	-0.067
TGGAGCAA	-0.00037
CCCAATAA	-0.0789
ACGAGGGG	-0.274
GCGTTGAC	0.133
AGCCATTG	0.247
AAAGTCAT	0.455
AGGACTAA	0.405
CACGAGGG	-0.294
AATGTGAC	0.203

Sequence	PBM E-score
GAGCGGAA	0.0206
AGATCCAC	-0.0378
ACAGGTAG	-0.24
AGCAAGGA	-0.0126
CGTGTGCA	-0.113
AAACGCGC	-0.241
CAAGTGGG	-0.0535
CACCCGTC	-0.0917
AAGTGTAA	0.0413
ACTCACTG	0.374
CAACGGCC	-0.172
AACAACAA	0.158
CAATGCGA	-0.0146
CGCCCAAC	-0.194
ACCGCTGG	-0.264
AGGGACAG	-0.198
TCATTGCA	0.0764
AGAGTAAT	0.15
GAACTCGC	0.143
TCTCAACA	0.107
CCCGCGCC	-0.251
ACTTCCAG	0.0792
AGTAGCCG	-0.177
AGAACGTA	0.00154
AATTAGCG	0.0109

Sequence	PBM E-score
CTAGCTCC	-0.325
AGGTCCGA	-0.0197
GAAGAGGA	-0.18
ACTCTTCT	0.23
AATGTCTC	0.274
ATTCTAAG	0.23
CCCTCCCC	-0.115
AACAATGA	0.191
CCACCCCG	-0.0984
CCTCAAAC	-0.0244
AGACGACA	-0.061
ATATCTGA	0.117
ACCATAAG	-0.0452
GAGATTGA	0.158
ATGCCGCA	-0.107
ACCTGGAA	-0.0885
CATTCCCA	-0.16
CAGGGATA	-0.214
TTCACAAA	0.0238
GACCAAGA	-0.0826
CAGACGTA	-0.117
CCCAGCTA	-0.0347
GCTCATCC	-0.0652
AAACCGCC	0.152
ACGCCCCC	-0.35

Sequence	PBM E-score
CGCACGTA	-0.124
TTACCTAA	-0.0168
GGGCGTAC	-0.246
GAATATTA	0.0629
CCAATGCG	-0.129
CTGCGGTA	0.154
ACCATTTA	0.0913
GTTGAAGA	0.204
CCACAAGG	-0.25
GCGGATCC	-0.228
AATTCATG	0.0244
CCACTAGC	-0.139
CACCGATC	0.0347
CAATGCCC	-0.271
ACTCACAA	0.395
AGGTGAAA	0.0659
GAACGCGC	-0.188
AGAGTGGA	-0.107
GCGACGAC	0.06
GAGACCTA	0.044
GCCGTTCA	-0.159
CCATAGAG	-0.0229
ACCACAAT	0.186
ATGCCGAC	0.167
GCCGCCGC	-0.142

Sequence	PBM E-score
CTACTAAC	0.0814
ATGGGGAC	-0.14
ACCTCTCA	-0.116
CAAAGACG	-0.156
CATGATTA	0.453
AACGCCAC	-0.241
AAAGCAGC	-0.134
CTCATCGA	0.173
ACTACCCG	0.153
CAAGACAG	-0.164
AGACGGTG	-0.288
CAGCAATG	-0.0128
CTACCTTC	-0.105
ACGAGTTC	0.114
CCCAGCGA	-0.0081
ACACAGAT	-0.0473
GGCCAACA	-0.0641
CAATCGAC	0.0905
ACGAGAGT	0.151
AGGTTTCC	-0.0971
GTTATTTA	-0.027
AGCTTAGC	-0.144
AAAGCTGA	0.0846
ATGAATAG	0.182
CTCCTCCA	-0.0193

Sequence	PBM E-score
AGAGGAAC	-0.189
CCCTTAGG	-0.17
GTGAAAAA	0.00448
AGCGTTAG	-0.0809
ATGAACAG	-0.0393
ACTGACAG	-0.0319
CAGGCGTC	-0.249
CCATAATC	0.239
AGGCTGAC	0.327
AAGCTAGC	-0.173
ATGCCGTG	0.0709
CAGAGAAG	0.0121
GGAATAGA	0.101
AAGGGTAT	-0.142
GAAGTTGA	0.0724
CGACCGAA	-0.164
AGATCTAA	-0.0235
AGAGTGCG	-0.148
GCCCGTAA	-0.0447
CGCCACTA	-0.113
CGGAGACG	-0.0897
CGAACTGA	-0.0335
TCCACAGA	0.153
GAACTCCA	0.0732
CGCCTAAG	-0.00592

Sequence	PBM E-score
ATCGTGCG	0.0944
CCAAGTCG	0.0788
GCAGATAA	0.164
AATTATGA	0.248
AGCTTACG	-0.0515
CCCACCTC	-0.257
GAGACAGC	0.136
GCCGCTGA	0.0647
AATGCTGA	-0.0228
GTATAAGA	0.0331
GACCCTCA	-0.065
ATATACGC	-0.0842
CGAAGTCC	0.0182
TGCCCGCA	-0.0949
ATTCTCTG	0.0149
CGCCTCCG	-0.123
AGTTATCA	-0.00043
GAGCTATA	-0.192
AGAACTAT	0.0551
TGTATCAA	0.187
ACCCGAGC	-0.191
GCCAGACA	-0.21
AGTGCTGG	-0.151
CTACTGAC	0.177
ATACCGGG	-0.0398

Sequence	PBM E-score
GGTGTCAC	0.0497
ACAAACTG	-0.157
AGGCGAGG	-0.241
CGGGAAGA	0.0454
ATGTTATC	0.051
AAAAACAG	0.064
AGGCAAAT	-0.185
GACTTGCA	0.241
AGCAATAA	0.042
TCGACCCA	0.0521
ATGCATGC	-0.0443
AACGGAAC	-0.134
AGATCGCT	-0.19
ATTCAAAT	0.214
CTCGCTAA	0.111
ATTACGGG	0.0135
AGTTGTAT	-0.078
GCAAGCCA	-0.00578
GAATATGC	-0.142
TAAGATCA	0.21
ATTGGCAC	0.0418
GATACGGA	0.046
CTACGGAC	-0.15
GAGCGTTA	-0.0636
AGACACCA	0.153

Sequence	PBM E-score
AGAGTACA	0.171
CCTGTTGA	0.1
ACCCCGCA	-0.254
ACCTGCTC	-0.261
AGCTGGCG	-0.154
CCCCACTC	-0.156
TAGAGTGA	0.171
CATGTAAC	-0.097
AGACTAAT	0.389
ACCAGATA	0.0252
CACCAATA	-0.0657
GAGCCGTA	0.22
GCAATTCA	-0.101
CGCACGTC	-0.277
CATTTGGG	-0.193
AAGTCTAT	0.0155
CAAAGGAA	-0.117
AGGTATCG	-0.0675
CGCTATTA	-0.133
